In paper PMC11024108:

Biological target: Endoplasmic reticulum resident protein 29 (UniProt P30040)
Test: cross-link between two proteins; cross-linking mass spectrometry

Substance: DNA-directed RNA polymerase, mitochondrial, O00411
- listed as a hit: yes
